Data: patent publication US20140093592A1, “[…] THE TREATMENT OF TREATMENT-[…] TREATMENT-RESISTANT DEPRESSION” (Janssen Pharmaceutica NV, priority 2012, published 2014)

Experiments:
NMDA receptor = conditions: S-enantiomer, compared with ketamine; cited from earlier work
[1] = system: adult subjects with treatment-resistant depression (TRD); test: Phase 2a clinical study of i.v. esketamine in TRD: MADRS total score; conditions: for Change from baseline in MADRS total score, LS Mean (SE): day 1 baseline to day 2, MMRM; for Effect size (MADRS change) vs placebo: day 1 to day 2; for Proportion of responders (MADRS reduction >50% vs baseline): on day 4

SMILES: CN[C@]1(c2ccccc2Cl)CCCCC1=O.Cl [Esketamine, (S)-2-(2-chlorophenyl)-2-(methylamino)cyclohexanone hydrochloride]
- Potency or affinity for the NMDA receptor (in words) (NMDA receptor): higher potency or affinity
- Non-responders to 0.2 mg/kg that responded to 0.4 mg/kg ([1]; 0.2 mg/kg Day 1, 0.4 mg/kg Day 4, hydrochloride): 2 of 3 and Two out of 3
- Change from baseline in MADRS total score, LS Mean (SE) ([1]; 0.2 mg/kg i.v.): −16.8 (3.00)
- Effect size (MADRS change) vs placebo ([1]; 0.2 mg/kg vs placebo): −1.54
- Remission rate ([1]; 0.2 mg/kg, by day 7 (DB phase)): 33.3%
- Proportion of responders (MADRS reduction >50% vs baseline) ([1]; 0.2 mg/kg): 66.7%
- Change from baseline in MADRS total score, LS Mean (SE) ([1]; 0.4 mg/kg i.v.): −16.9 (2.61)
- Effect size (MADRS change) vs placebo ([1]; 0.4 mg/kg vs placebo): −1.70
- Proportion of responders (MADRS reduction >50% vs baseline) ([1]; 0.4 mg/kg): 63.6%
